Experimental findings from publication PMC6451091 are described below.

The list shows a part of the results. For part of these data: At the low end of the ranking, values are background and their order means little. For part of these data: The protein was read in a cell extract, so binding may be indirect.

What all share (conditions): 20 mM HEPES pH 7.9, 100 mM NaCl, 1 mM DTT, 0.2 mg/mL BSA, 0.02% Triton X-100, 2% milk, 0.4 mg/mL salmon testes DNA; 1 h; temperature not stated; high values mean tight binding; double strand, one strand shown; sequences stand for … in GCCTAGCAC…GTGCTAGGTCTTGATTCGCTTGACGCTGCTG
In experiment [1] the target is PU.1 (IVT) (UniProt P17947). Description: protein-binding microarray (PBM).
Experiment [2] addresses PU.1 (endogenous, THP-1 nuclear extract) (UniProt P17947). Description: nuclear extract protein-binding microarray (nextPBM).
The target in experiment [3] is T1, FLI1 (endogenous, THP-1 nuclear extract) (UniProt Q01543).
T1 sequence: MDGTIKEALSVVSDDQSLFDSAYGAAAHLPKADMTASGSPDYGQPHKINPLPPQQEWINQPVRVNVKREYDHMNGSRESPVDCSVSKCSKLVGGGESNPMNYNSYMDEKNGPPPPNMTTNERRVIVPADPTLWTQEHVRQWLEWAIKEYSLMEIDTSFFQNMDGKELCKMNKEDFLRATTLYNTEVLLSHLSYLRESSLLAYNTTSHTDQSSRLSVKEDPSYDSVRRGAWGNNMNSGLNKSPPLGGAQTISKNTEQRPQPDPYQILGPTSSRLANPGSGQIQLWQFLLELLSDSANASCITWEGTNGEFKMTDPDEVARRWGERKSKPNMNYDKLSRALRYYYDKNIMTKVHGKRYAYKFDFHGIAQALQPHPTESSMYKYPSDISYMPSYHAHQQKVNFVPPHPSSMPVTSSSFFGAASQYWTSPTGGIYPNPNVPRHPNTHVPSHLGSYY
The description is as above.

With AAGAGGAGGAAGTGGAAGGG, the binding signal in experiment [1] is 4.25 z-score; in experiment [2], 4.43 z-score; in experiment [3], 2.57 z-score.
Taken in the same sequence, the figures for TGGGAAAGGAAGTGATAAGT were 2.29 z-score, 1.98 z-score and 2.5 z-score.
Taken in the same sequence, the figures for GAAAAGAGGAAGCCCTAACA were 5.18 z-score, 6.12 z-score and 2.01 z-score.
Regarding CGAAAGGGGGAGTGCTAAAC, the binding signal is -0.398 z-score in experiment [1], -0.486 z-score in experiment [2] and 0.304 z-score in experiment [3].
In the case of TGAAAAGGGAAGTGGAAAAA, the binding signal is 5.97 z-score in experiment [1], 6.09 z-score in experiment [2] and 2.91 z-score in experiment [3].
Taken in the same sequence, the figures for AGAGAAGGGAAGTGAGATAC were 3.12 z-score, 2.74 z-score and 1.77 z-score.
Consider TGTGGGAGGAAGTGCAAAAA, for which the binding signal in experiment [1] was determined as 3.55 z-score; in experiment [2] it was 3.14 z-score; in experiment [3], 2.43 z-score.
AATTTGAGGAAGTGAATCTG: the binding signal was 7.68 z-score in experiment [1], 7.4 z-score in experiment [2] and 3.81 z-score in experiment [3].
Regarding CAGGAGAGGAAGTTGGAGAC, the binding signal in experiment [1] came to 4.52 z-score; in experiment [2] it was 4.61 z-score; in experiment [3], 2.85 z-score.
Take AGAGAGAGGAAGTGAACTCC: the binding signal in experiment [1] was 4.57 z-score; in experiment [2], 5.03 z-score; in experiment [3] it was 2.8 z-score.
Taken in the same sequence, the figures for AACAGGAGGAAGTGAGATGT were 4.34 z-score, 4.26 z-score and 2.7 z-score.
Taken in the same sequence, the figures for GAAAGGGGGAAGTGACTAAG were 5.51 z-score, 5.96 z-score and 2.5 z-score.
In the case of TGAAAGAGGAAGTGAGGAAG, the figures for the binding signal in experiment [1], in experiment [2] and in experiment [3] were 7.36 z-score, 7.1 z-score and 4.03 z-score, respectively.
Taken in the same sequence, the figures for TAATTGAGGAACTGCAAATG were 4.82 z-score, 4.67 z-score and 1.21 z-score.
As for CCAAAGAGGAAGTCACAGCC, the binding signal in experiment [1] was 5.73 z-score; in experiment [2], 6.38 z-score; in experiment [3], 2.86 z-score.
With CATATGAGGAACTGATGCGG, the binding signal in experiment [1] came to 3.75 z-score; in experiment [2], 4.03 z-score; in experiment [3], 0.547 z-score.
Taken in the same sequence, the figures for TTTGGAAGGAACTACTGTGA were 1.32 z-score, 1.39 z-score and 0.204 z-score.
Taken in the same sequence, the figures for ACAAAAAGTAACTGTGCCCC were -0.372 z-score, -0.05 z-score and -0.053 z-score.
Consider AGTTAAGGGAAGTGGCCCAG, for which the binding signal in experiment [1] worked out at 3 z-score; in experiment [2], 3.25 z-score; in experiment [3], 1.45 z-score.
Taken in the same sequence, the figures for AGAAACAGGAAGAGAGAGCA were 2.85 z-score, 3.58 z-score and 2.52 z-score.
The like results for GGAAAGAGGAAGGGCATGGG were, in that order, 3.55 z-score, 4.23 z-score and 1.53 z-score.
